Data as given in publication PMC5892938.
This is one part of the list. The source does not settle which construct or isoform was used.

Each sequence was assayed against GST-SBP-ILF3 (Homo sapiens) (UniProt Q12906) (assay: targeted RNA Bind-n-Seq). Conditions: RBNS binding buffer: 25 mM Tris pH 7.5, 150 mM KCl, 3 mM MgCl2, 0.1% Tween, 0.5 mg/mL BSA, 1 mM DTT; 27 nM protein, 750 pM RNA pool; temperature not stated; high values mean tight binding; sequences stand for … in GGGUAAAAGCGAGGUGAA…CGGGACAAGUAUUAUGGG.

Sequence	binding signal (log2 fold change)
GUGUGUUGUGUUGGCCCCUAACACAACGCG [gtspaired]	-0.584
GUGUGUGGUGUUGGCGUCUAACACCGCACG [gtspaired]	-0.448
UUUUUUUUUUGAGACGGCGACCGUUUCCAG [tttttgagapaired]	0.825
UUUUUUUUUUGAGACGGGAGCCGUCUCCGG [tttttgagapaired]	0.595
GUGUUGUGUGUUGGAAUCUAACACACAGCA [gtspaired]	-0.564
UUUUUUUUUUGAGACCGCUGCGGUCUUCUA [tttttgagapaired]	0.781
UUUUUUUUUUGAGACGGUCUCUGUCUCCUA [tttttgagapaired]	0.849
UUUUUUUUUUGAGACGGUGUCUGUCUCCUA [tttttgagapaired]	0.818
UUUUUUUUUUGAGAUGGUAACCAUCUUCUA [tttttgagapaired]	-0.301
UUUUUUUUUUGAGAGCGAGACGCUCUCCUG [tttttgagapaired]	0.403
UUUUUUUUUUGAGACCGCAACGGUCUCCUA [tttttgagapaired]	0.241
UUUUUUUUUUGAGAGGGCGGCCCUCUCCGG [tttttgagapaired]	1.14
GUUGUGUGUGUUGGUCUCUAACACACACGA [gtspaired]	-0.545
GGUGGUGGUGUUGGCGCCUAACACCAUCGC [gtspaired]	-0.463
UUUUUUUUUUGAGAUCGAGUCGAUCUCCUA [tttttgagapaired]	0.209
UUUUUUUUUUGAGAUCGGGACGAUUUCCAG [tttttgagapaired]	0.446
UUCUCUUCUCCUCCACAGGAGGGGGAGGGA [ctspaired]	-0.886
GUGUGUUGUGUUGGCAUCUAACACAACACG [gtspaired]	-0.522
GGUGUUGGUGUUGGCCUCUAACACCGAUAC [gtspaired]	-0.813
UUUUUUUUUUGAGACUGUAUCAGUUUCCUG [tttttgagapaired]	0.479
UUUUUUUUUUGAGAUCGAGGCGAUCUCCGG [tttttgagapaired]	0.183
UUUUUUUUUUGAGAUGGAGCCCAUCUCCUA [tttttgagapaired]	0.375

Sequence	binding signal (log2 fold change)
GUGUGGUGUGUUGGUGCCUAACACACCGCG [gtspaired]	-0.428
UUUUUUUUUUGAGAUGGCGGCCAUCUCCGG [tttttgagapaired]	0.72
UUUUUUUUUUGAGACUGAUCCAGUCUUCUA [tttttgagapaired]	-0.172
UUUUUUUUUUGAGAUGGGGGCCAUUUCCAG [tttttgagapaired]	0.882
GUUGUGUGUGUUGGACUCUAACACACGCAG [gtspaired]	-0.698
UUUUUUUUUUGAGACGGAUUCUGUCUCCAG [tttttgagapaired]	0.173
UUUUUUUUUUGAGACUGAUCCAGUCUUCUG [tttttgagapaired]	0.0108
GUGUGUGGUGUUGGCACCUAACACCGCGCG [gtspaired]	-0.535
UUUUUUUUUUGAGACGGAGUCUGUCUCCUA [tttttgagapaired]	0.275
UUUUUUUUUUGAGAUGGCAACCAUCUUCUG [tttttgagapaired]	0.405
GUGUGUGGUGUUGGCGCCUAACACCAUACG [gtspaired]	-0.53
UUUUUUUUUUGAGACGGAAGCUGUCUUCUA [tttttgagapaired]	0.548
UUUUUUUUUUGAGACUGGGCCAGUCUUCUG [tttttgagapaired]	0.579
UUUUUUUUUUGAGACGGUAACCGUCUCCUG [tttttgagapaired]	0.496
UUUUUUUUUUGAGAGCGGUCCGCUCUCCAG [tttttgagapaired]	0.61
GUGGUUGGUGUUGGCACCUAACACCAACUA [gtspaired]	-0.683
GGUGUGUGUGUUGGUACCUAACACAUAUAC [gtspaired]	-0.927
GUGUGUGGUGUUGGCAUCUAACACCAUACG [gtspaired]	-0.547
UUUUUUUUUUGAGAGCGGGUCGCUCUCCGG [tttttgagapaired]	0.53
GGUUGGUGUGUUGGAUCCUAACACAUCAGC [gtspaired]	-0.57
GUUGGUGGUGUUGGAUUCUAACACCGCCGA [gtspaired]	-0.721
UUUUUUUUUUGAGAUCGGAACGAUCUUCUA [tttttgagapaired]	-0.112

Sequence	binding signal (log2 fold change)
UUUUUUUUUUGAGAUGGAGACCAUCUCCUG [tttttgagapaired]	0.459
UUUUUUUUUUGAGACUGAUGCAGUCUCCAG [tttttgagapaired]	0.376
UUUUUUUUUUGAGAGGGCCACCCUCUCCAG [tttttgagapaired]	0.857
GUGGUGUGUGUUGGCCCCUAACACAUACCA [gtspaired]	0.0963
UUUUUUUUUUGAGAGGGCUGCUCUCUCCAG [tttttgagapaired]	0.706
GGUUGUGGUGUUGGUCCCUAACACCGCAGC [gtspaired]	-0.323
UUUUUUUUUUGAGAUGGGACCCAUCUCCGG [tttttgagapaired]	0.352
UUCUCUUCUCCUCCGCUGGAGGAGGAGGGA [ctspaired]	0.1
UUUUUUUUUUGAGACCGUUUCGGUCUCCAG [tttttgagapaired]	0.119
UUUUUUUUUUGAGAUGGAGACCAUUUCCGG [tttttgagapaired]	0.442
GUGGUGUGUGUUGGCGUCUAACACACACUA [gtspaired]	-0.548
GGUGGUGGUGUUGGAAUCUAACACCGCUAC [gtspaired]	-0.539
GUGUGUUGUGUUGGCCUCUAACACAACGCA [gtspaired]	-0.411
UUUUUUUUUUGAGAUCGAAACGAUCUCCUG [tttttgagapaired]	-0.0647
UUUUUUUUUUGAGAUGGUUUCCAUCUCCUG [tttttgagapaired]	0.413
GUGUUGUGUGUUGGCCCCUAACACACAGCG [gtspaired]	-0.213
GGUUGUGGUGUUGGCGUCUAACACCAUAAC [gtspaired]	-0.742
UUUUUUUUUUGAGACGGAAACUGUCUUCUG [tttttgagapaired]	0.817
GUGUGUGGUGUUGGAGUCUAACACCACGCG [gtspaired]	-0.587
UUUUUUUUUUGAGACGGCGACUGUCUCCGG [tttttgagapaired]	1.04
UUUUUUUUUUGAGACUGUUUCAGUUUCCAG [tttttgagapaired]	0.125
UUUUUUUUUUGAGACUGCUACAGUUUCCGG [tttttgagapaired]	0.64
